Laboratory results as given in PMC4336329 (PLoS ONE, 2015).
About 14,000 (4.5%) of roughly 310,000 compounds showed an effect of 50% or more. Effects have a minus sign here. Some of the results follow.

What follows are compounds tested against human ether-à-go-go-related gene (hERG) potassium channel (human, UniProt Q12809) (assay: primary screen, population patch clamp on CHO cells stably expressing hERG).
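Note: peak tail current of the secondary pulse compared with the same well before compound.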

Sequence of human ether-à-go-go-related gene (hERG) potassium channel (Q12809 whole entry, looked up): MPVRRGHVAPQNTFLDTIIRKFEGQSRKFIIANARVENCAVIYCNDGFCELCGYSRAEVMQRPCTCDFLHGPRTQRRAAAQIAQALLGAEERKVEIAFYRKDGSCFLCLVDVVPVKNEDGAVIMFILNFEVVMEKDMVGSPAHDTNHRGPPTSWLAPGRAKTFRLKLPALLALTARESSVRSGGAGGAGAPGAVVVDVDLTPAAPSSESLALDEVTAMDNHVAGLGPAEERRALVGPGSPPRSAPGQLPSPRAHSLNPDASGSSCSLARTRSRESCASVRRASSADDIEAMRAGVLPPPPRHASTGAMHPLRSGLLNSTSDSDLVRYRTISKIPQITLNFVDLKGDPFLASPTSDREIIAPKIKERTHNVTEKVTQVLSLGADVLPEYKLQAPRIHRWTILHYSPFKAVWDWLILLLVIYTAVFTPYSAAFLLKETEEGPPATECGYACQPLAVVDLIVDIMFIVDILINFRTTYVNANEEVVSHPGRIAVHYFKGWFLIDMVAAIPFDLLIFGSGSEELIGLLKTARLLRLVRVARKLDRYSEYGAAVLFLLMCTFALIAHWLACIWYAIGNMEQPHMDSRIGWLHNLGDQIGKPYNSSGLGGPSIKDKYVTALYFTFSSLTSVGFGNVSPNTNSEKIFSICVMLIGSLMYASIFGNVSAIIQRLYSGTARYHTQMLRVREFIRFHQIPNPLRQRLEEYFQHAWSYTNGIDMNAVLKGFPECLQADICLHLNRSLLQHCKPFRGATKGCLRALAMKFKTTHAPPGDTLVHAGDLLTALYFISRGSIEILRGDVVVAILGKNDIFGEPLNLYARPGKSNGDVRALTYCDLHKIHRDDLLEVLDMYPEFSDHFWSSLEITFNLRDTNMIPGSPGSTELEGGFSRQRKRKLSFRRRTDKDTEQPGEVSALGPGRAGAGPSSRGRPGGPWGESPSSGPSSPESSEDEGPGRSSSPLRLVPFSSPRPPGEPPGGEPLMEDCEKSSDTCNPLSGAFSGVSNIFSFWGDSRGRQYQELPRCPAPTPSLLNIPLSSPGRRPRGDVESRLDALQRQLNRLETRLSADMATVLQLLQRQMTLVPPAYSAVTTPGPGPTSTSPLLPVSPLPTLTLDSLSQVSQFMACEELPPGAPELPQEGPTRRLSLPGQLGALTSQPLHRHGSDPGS

Row | Structure (SMILES) | hERG current change (%, negative = inhibition) at 10uM [%]
1 | CCCCCCCCCC(=O)N1c2ccccc2NC(=O)C1CC(=O)Nc1ccc(C(=O)O)cc1 (stereo not drawn) | 6.95
2 | COc1ccc(CC(=O)NCCN2CCOCC2)cc1 | 18.1
3 | CC(=O)n1nc(-c2ccccc2)nc1NCc1ccc(N(C)C)cc1 | -0.294
4 | CCc1nnc(NC(=O)c2c(-c3ccccc3)noc2C)s1 | 10.2
5 | Cn1c(N)c(C(=O)CSc2nc3ccccc3c(=O)n2Cc2ccccc2)c(=O)n(C)c1=O | 6.03
6 | CN1CCN(c2ccc([N+](=O)[O-])c(Sc3ccccn3)c2)CC1 | -15.7
7 | O=C(NCc1ccccc1)/C(=C/c1ccccc1)NC(=O)c1ccco1 | -24.6
8 | COC(=O)\C(C(C)=O)=C(/C=C/C=C/C=C/N(C)C)N(C)C | -1.84
9 | CS(=O)(=O)N1CCN(c2nnc(-c3ccccc3)c3ccccc23)CC1 | -21
10 | Cc1cccc(NS(=O)(=O)c2ccc(-c3cnc(C4CC4)o3)cc2)c1 | 6.28
11 | CCOC(=O)C(NC(=O)N(C)C)(Nc1sc(C)c(CC)c1C#N)C(F)(F)F (stereo not drawn) | -3.54
12 | COc1ccc(C(=O)Nc2cc(Cl)ccc2OC(=O)c2ccc(OC)cc2)cc1 | 4.19
13 | Fc1ccc(-n2nnnc2-c2ccccc2Cl)cc1 | 8.64
14 | O=C(N1CCOCC1)N1CCC(n2nnc3cc(F)ccc32)CC1 | -7.65
15 | Cc1cccc(C)c1OCC(=O)NCc1nnc(SCC(=O)NC2CCCCC2C)n1C (stereo not drawn) | -6.2
16 | CCCCSc1oc(-c2ccco2)nc1S(=O)(=O)c1ccccc1 | 14.4
17 | CCCN(CCC)C(C)C(=O)NCC1(c2ccccc2)CCCC1.Cl (stereo not drawn) | -15.3
18 | COC(=O)c1ccccc1NC(=O)Cn1c(=O)oc2ccc(Cl)cc21 | 1.53
19 | c1ccc(-c2nnc(-c3ccccc3)o2)cc1 | -9.27
20 | COc1ccccc1-n1c(C)nnc1SCC(=O)NCc1ccccc1 | 11.5
21 | CCCCOc1ccccc1C(=O)N(Cc1ccco1)C1CCS(=O)(=O)C1 (stereo not drawn) | 6.52
22 | CCn1c(=O)c2c(nc3n2CC(C)CN3CCc2ccccc2)n(C)c1=O (stereo not drawn) | -72.6
23 | Cc1ccc(CNC(=O)CS(=O)(=O)Cc2nc(-c3ccccc3F)oc2C)cc1 | 14.5

Row | Structure (SMILES) | hERG current change (%, negative = inhibition) at 10uM [%]
24 | C=C(c1ccccc1O)n1ccnc1 | 27.8
25 | C(=N\n1cnnc1)/c1ccccn1 | -8.04
26 | COc1c(Cl)cc(Cl)cc1/C=C/C(=O)c1ccc(NC(=O)c2cccs2)cc1 | -1.04
27 | COCCN(CCOC)Cc1c(C)[nH]c2c(C)c(C)ccc2c1=O | -9
28 | Cc1ccc(O)c(C2=Nc3ccccc3C2(C)C)c1 | -5.35
29 | CCCCNS(=O)(=O)C1CCS(=O)(=O)C1 (stereo not drawn) | 17
30 | Cc1ccc2cccc(Oc3ncnc4scc(-c5ccc(Cl)cc5)c34)c2n1 | 3.87
31 | CCN1CCN(CC(=O)Nc2ccccc2)C(=O)C1=O | 10.9
32 | COC(=O)c1cc(C(=O)NCc2ccccc2)c(=O)[nH]c1C | -7.21
33 | Cc1cc(C)cc(OCC(=O)N2N=C(C(F)(F)F)CC2(O)C(C)(C)C)c1 (stereo not drawn) | 3.64
34 | O=C(Cn1ncc(Cl)c(Cl)c1=O)N1CCOCC1 | 15.2
35 | CCOC(=O)c1c(CN2CCCCC2)n(C)c2cc(Br)c(O)cc12 | -68.2
36 | COC(=O)COc1ccc(S(=O)(=O)Nc2cc([N+](=O)[O-])ccc2C)cc1 | 19.3
37 | O=C(Cc1cccc2ccccc12)N/N=C/c1ccc(O)c([N+](=O)[O-])c1 | -21.7
38 | Cc1c(Cc2ccccc2)c(=O)oc2cc(OCC(=O)NCc3ccccn3)ccc12 | 3.79
39 | CCCCCCCCN1[C@@H](CC(=O)OC)c2cc(F)ccc2S1(=O)=O | -33.2
40 | COc1cccc(C(=O)NCCS(=O)(=O)N2CCC3(CC2)OCCO3)c1 | 5.1
41 | CCO/C=C1/C(=O)N(Cc2ccccc2)C(=O)c2ccccc21 | 0.133
42 | O=C(Nc1ccccc1-c1ccccc1)c1cccc([N+](=O)[O-])c1 | -2.04
43 | COc1ccc2nc(N3C(=O)CNC3=S)sc2c1 | -1.63
44 | CSc1nc(-c2ccccc2)nc(NC(C)=O)c1C(C)=O | -23.9
45 | Cc1ccc(S(=O)(=O)N2CCN(CC(=O)Nc3ccc4c(c3)CCC4)CC2)cc1C | 16.6
46 | CN(C)N=Nc1ccc2nc[nH]c2c1 | 6.6

Row | Structure (SMILES) | hERG current change (%, negative = inhibition) at 10uM [%]
47 | O=C(CCCN1C(=O)/C(=C/c2ccco2)SC1=S)Nc1cccc(C(=O)O)c1 | 2.38
48 | CCn1c(CC(=O)Nc2ccc(C)cc2)nnc1SCC(=O)NCCc1ccccc1 | -4.96
49 | CC1CCc2ccccc2N1C(=O)c1cccs1 (stereo not drawn) | 2.28
50 | COC(=O)COc1ccc2c(=O)c(Oc3ccccc3)c(C)oc2c1 | 21.1
51 | CC(C)OC(=O)C(C(=O)C(F)(F)F)c1cc(NS(=O)(=O)c2ccc3ccccc3c2)c2ccccc2c1O (stereo not drawn) | -17.2
52 | O=C(c1ccccc1)N1N=C(c2ccccc2)CC1c1cccs1 (stereo not drawn) | 6.38
53 | CN(C)[C@@H]1C(=O)C(C(N)=O)=C(O)[C@@]2(O)C(=O)C3=C(O)c4c(O)cccc4[C@@](C)(O)C3[C@H](O)C12.O (stereo partly drawn) | -10.5
54 | C=C(C)CNC(=O)c1ccc(OC2CCN(S(=O)(=O)N(C)C)CC2)cc1 | 12.3
55 | Cc1ccc(S(=O)(=O)NCCc2cc3ccc(C)cc3[nH]c2=O)cc1 | -1.35
56 | CCN1CCN(c2ccc([N+](=O)[O-])cc2C=C2C(=O)NC(=O)NC2=O)CC1 | -66.3
57 | O=C(CN1C(=O)c2ccccc2C1=O)NCc1ccc(N2CCOCC2)cc1 | 14.1
58 | CCCCS(=O)(=O)Nc1ccc(C(=O)NCC2CCCO2)cc1 (stereo not drawn) | -4.69
59 | CCOC(=O)Nc1nnc(-c2cccc(OC)c2)s1 | -9.03
60 | CC(=O)c1c(C)[nH]c(C(=O)OCC(=O)N2CCCC2=O)c1C | 9.37
61 | COc1ccc(C)cc1S(=O)(=O)NCCN1CCOCC1 | 17.5
62 | COc1cc(CN(C(=S)NCC(=O)O)C2CCCC2)cc(OC)c1OC | 21.2
63 | CCNC(=S)NNC(=O)c1ccc2ncccc2c1 | 8.95
64 | Clc1cc(NCc2ccccc2)ncn1 | 19.9
65 | Cc1cccc(N2C(=O)C3CCCN3C2=S)c1C (stereo not drawn) | 8.46
66 | CCOC(=O)c1c(/N=C/c2cc(OC)cc([N+](=O)[O-])c2O)sc(C)c1C | 7.03
67 | Cc1ccc(C(CC(=O)O)C2CCOC(C)(C)C2)cc1 (stereo not drawn) | 9.61
68 | COc1ccccc1C(OC(=O)c1cccs1)C(=O)NCC1CCCO1 (stereo not drawn) | -3.77
69 | NC(=O)C1CCN(C(=O)C2CCC(=O)N(CC3CCCCC3)C2)CC1 (stereo not drawn) | 2.85

Row | Structure (SMILES) | hERG current change (%, negative = inhibition) at 10uM [%]
70 | CC(Cc1ccccc1)NC(=O)CCCCC(=O)NC(C)Cc1ccccc1 (stereo not drawn) | 9.95
71 | COc1cccc(C2CCCN2Cc2nc(CC3CC3)no2)c1 (stereo not drawn) | 27.6
72 | O=C(Nc1ccccc1[N+](=O)[O-])c1cccc(N2C(=O)CCC2=O)c1 | 6.64
73 | Cc1ccc(S(=O)(=O)N2CCCCC2CCNC(=O)C(=O)NCc2ccncc2)cc1 (stereo not drawn) | -28.1
74 | Cc1ccc(NCc2nnc(SCC(=O)Nc3cc(C)on3)n2C)cc1 | 12.1
75 | CCNCc1cc(Cl)c(OCc2ccccc2)c(OCC)c1.Cl | -8.51
76 | c1ccc(CCNc2nc(-c3ccccn3)nc3ccccc23)cc1 | -78.6
77 | Cc1ccc2[nH]c(C)c(CCNC(=O)C3CCCCC3C(=O)OCC(F)(F)F)c2c1 (stereo not drawn) | -1.93
78 | O=C(CCn1cncn1)N1CCN(S(=O)(=O)c2ccc(Cl)cc2)CC1 | 1.16
79 | CCOC(=O)Cc1csc(NC(=O)CSc2nnc(C(C)C)n2CC)n1 | 6.72
80 | CC(C)Oc1ccc(C2CC(=O)N(C)C2=O)cc1 (stereo not drawn) | 11.9
81 | CCC(C(=O)NCCCc1ccccc1)c1ccccc1 (stereo not drawn) | -20.3
82 | COc1cc2c(cc1OC)CN(C(=O)/C=C/c1ccc(F)cc1)CC2 | -22.2
83 | O=C1CCN(Cc2ccccc2)S(=O)(=O)c2ccccc21 | -1.02
84 | O=C(C1CC(=O)N(c2ccc3c(c2)OCCO3)C1)N1CCCC(C(F)(F)F)C1 (stereo not drawn) | 8.2
85 | COC(=O)C1=C(C)NC(=O)/C1=C\c1cc(C)n(-c2ccccc2)c1C | 20.3
86 | CCOc1ccc(C(=O)OCC(=O)NCc2ccco2)cc1OCC | -6.89
87 | Cc1ccc(C(C)C)c(OCC(=O)N/N=C2\CC(=O)CC(C)(C)C2)c1 | -16.7
88 | O=C(NCCSCc1ccccc1)c1ccc(C2SCC(=O)N2Cc2ccccc2)cc1 (stereo not drawn) | -8.07
89 | Cc1ccc(NC(=O)CCC(=O)NNC(=O)COc2ccccc2)c(C)c1 | 12.1
90 | CC(=O)NCCc1nc2cc(NS(=O)(=O)c3ccccc3)ccc2n1C | -2.3
